{
  "source": "paper PMC9911399",
  "about": "“Two distinct binding modes provide the RNA-binding protein RbFox with extraordinary sequence specificity”",
  "binders": {"B1": {"name": "CGCGUAC (DNA:RNA)", "RNA": "GGGAGACCGGAAUUCAGAUUGUCCCGCGUACUUAAAUCCCGUCGUAGCCACCA", "DNA 1": "CAATCTGAATTCCGGTCTCCC", "DNA 2": "TGGTGGCTACGACGGGATT"}, "B2": {"name": "CUAGUGG (DNA:RNA)", "RNA": "B1 RNA with G26U, C27A, A30G, C31G", "DNA 1": "CAATCTGAATTCCGGTCTCCC", "DNA 2": "TGGTGGCTACGACGGGATT"}, "B3": {"name": "GUAGAUA (DNA:RNA)", "RNA": "B1 RNA with C25G, G26U, C27A, U29A, A30U, C31A", "DNA 1": "CAATCTGAATTCCGGTCTCCC", "DNA 2": "TGGTGGCTACGACGGGATT"}, "B4": {"name": "UAGACCU (DNA:RNA)", "RNA": "GGGAGACCGGAAUUCAGAUUGUCCUAGACCUUUAAAUCCCGUCGUAGCCACCA", "DNA 1": "CAATCTGAATTCCGGTCTCCC", "DNA 2": "TGGTGGCTACGACGGGATT"}, "B5": {"name": "AGGCAGA (DNA:RNA)", "RNA": "B1 RNA with C25A, C27G, G28C, U29A, A30G, C31A", "DNA 1": "CAATCTGAATTCCGGTCTCCC", "DNA 2": "TGGTGGCTACGACGGGATT"}, "B6": {"name": "GGAGGCA (DNA:RNA)", "RNA": "B1 RNA with C25G, C27A, U29G, A30C, C31A", "DNA 1": "CAATCTGAATTCCGGTCTCCC", "DNA 2": "TGGTGGCTACGACGGGATT"}, "B7": {"name": "UUGAGAU (DNA:RNA)", "RNA": "B4 RNA with A26U, C29G, C30A", "DNA 1": "CAATCTGAATTCCGGTCTCCC", "DNA 2": "TGGTGGCTACGACGGGATT"}, "B8": {"name": "CAACCCC (DNA:RNA)", "RNA": "B4 RNA with U25C, G27A, A28C, U31C", "DNA 1": "CAATCTGAATTCCGGTCTCCC", "DNA 2": "TGGTGGCTACGACGGGATT"}, "B9": {"name": "GACCAGG (DNA:RNA)", "RNA": "B1 RNA with C25G, G26A, G28C, U29A, A30G, C31G", "DNA 1": "CAATCTGAATTCCGGTCTCCC", "DNA 2": "TGGTGGCTACGACGGGATT"}, "B10": {"name": "UUUUCCG (DNA:RNA)", "RNA": "B4 RNA with A26U, G27U, A28U, U31G", "DNA 1": "CAATCTGAATTCCGGTCTCCC", "DNA 2": "TGGTGGCTACGACGGGATT"}, "B11": {"name": "GCGAGGU (DNA:RNA)", "RNA": "B4 RNA with U25G, A26C, C29G, C30G", "DNA 1": "CAATCTGAATTCCGGTCTCCC", "DNA 2": "TGGTGGCTACGACGGGATT"}, "B12": {"name": "AUAAACG (DNA:RNA)", "RNA": "B4 RNA with U25A, A26U, G27A, C29A, U31G", "DNA 1": "CAATCTGAATTCCGGTCTCCC", "DNA 2": "TGGTGGCTACGACGGGATT"}, "B13": {"name": "CGUUAAA (DNA:RNA)", "RNA": "B1 RNA with C27U, G28U, U29A, C31A", "DNA 1": "CAATCTGAATTCCGGTCTCCC", "DNA 2": "TGGTGGCTACGACGGGATT"}, "B14": {"name": "CACCAUU (DNA:RNA)", "RNA": "B1 RNA with G26A, G28C, U29A, A30U, C31U", "DNA 1": "CAATCTGAATTCCGGTCTCCC", "DNA 2": "TGGTGGCTACGACGGGATT"}, "B15": {"name": "AUGAACG (DNA:RNA)", "RNA": "B4 RNA with U25A, A26U, C29A, U31G", "DNA 1": "CAATCTGAATTCCGGTCTCCC", "DNA 2": "TGGTGGCTACGACGGGATT"}, "B16": {"name": "GUGGGGU (DNA:RNA)", "RNA": "B4 RNA with U25G, A26U, A28G, C29G, C30G", "DNA 1": "CAATCTGAATTCCGGTCTCCC", "DNA 2": "TGGTGGCTACGACGGGATT"}, "B17": {"name": "GCUAAUG (DNA:RNA)", "RNA": "B4 RNA with U25G, A26C, G27U, C29A, C30U, U31G", "DNA 1": "CAATCTGAATTCCGGTCTCCC", "DNA 2": "TGGTGGCTACGACGGGATT"}, "B18": {"name": "GUAAGGU (DNA:RNA)", "RNA": "B4 RNA with U25G, A26U, G27A, C29G, C30G", "DNA 1": "CAATCTGAATTCCGGTCTCCC", "DNA 2": "TGGTGGCTACGACGGGATT"}, "B19": {"name": "UAAACGU (DNA:RNA)", "RNA": "B4 RNA with G27A, C30G", "DNA 1": "CAATCTGAATTCCGGTCTCCC", "DNA 2": "TGGTGGCTACGACGGGATT"}, "B20": {"name": "AUAAAAC (DNA:RNA)", "RNA": "B1 RNA with C25A, G26U, C27A, G28A, U29A", "DNA 1": "CAATCTGAATTCCGGTCTCCC", "DNA 2": "TGGTGGCTACGACGGGATT"}},
  "note": "Numbering of substitutions follows the chain as printed; changes in the protein carry UniProt numbers. This is one part of the list.",
  "data": [
    {"biological_target": "T1, RBFOX1 RRM (Homo sapiens, UniProt Q9NWB1 109-208)", "T1 sequence": "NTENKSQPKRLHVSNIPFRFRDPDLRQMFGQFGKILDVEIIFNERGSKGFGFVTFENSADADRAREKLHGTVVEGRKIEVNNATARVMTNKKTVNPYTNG", "assay": "EMSA; HiTS-Eq, 1 nM pool, 10 min; buffer printed only for the single-RNA assays: 10 mM Tris pH 7.5, 150 mM NaCl, 3.4 mM EDTA, 0.001% NP-40, 30 C", "conditions": "tags: His6 N-terminal (pET28a); label: 5' 32P", "in_short": "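A pool of RNA with 7 randomized nucleotides, 5′-radiolabelled and with DNA-annealed flanks, was equilibrated at 1 nM for 10 min in 50 µL with purified RbFox RRM, wild type or mutant, across increasing protein concentrations. Free RNA was separated by 8% native PAGE, excised, reverse-transcribed, barcoded by PCR and sequenced. Relative association constants were obtained from read-count changes of each RNA species versus the control reaction and normalised to the cognate motif.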", "values": [
      {"binder": "B1", "binding signal": "0.00803 KA relative to UGCAUGU"},
      {"binder": "B2", "binding signal": "0.00266 KA relative to UGCAUGU"},
      {"binder": "B3", "binding signal": "0.00757 KA relative to UGCAUGU"},
      {"binder": "B4", "binding signal": "0.00333 KA relative to UGCAUGU"},
      {"binder": "B5", "binding signal": "0.00971 KA relative to UGCAUGU"},
      {"binder": "B6", "binding signal": "0.0162 KA relative to UGCAUGU"},
      {"binder": "B7", "binding signal": "0.019 KA relative to UGCAUGU"},
      {"binder": "B8", "binding signal": "0.000951 KA relative to UGCAUGU"},
      {"binder": "B9", "binding signal": "0.013 KA relative to UGCAUGU"},
      {"binder": "B10", "binding signal": "0.0112 KA relative to UGCAUGU"},
      {"binder": "B11", "binding signal": "0.0132 KA relative to UGCAUGU"},
      {"binder": "B12", "binding signal": "0.000823 KA relative to UGCAUGU"},
      {"binder": "B13", "binding signal": "0.00307 KA relative to UGCAUGU"},
      {"binder": "B14", "binding signal": "0.000381 KA relative to UGCAUGU"},
      {"binder": "B15", "binding signal": "0.00874 KA relative to UGCAUGU"},
      {"binder": "B16", "binding signal": "0.014 KA relative to UGCAUGU"},
      {"binder": "B17", "binding signal": "0.0129 KA relative to UGCAUGU"},
      {"binder": "B18", "binding signal": "0.00752 KA relative to UGCAUGU"},
      {"binder": "B19", "binding signal": "0.00551 KA relative to UGCAUGU"},
      {"binder": "B20", "binding signal": "0.000263 KA relative to UGCAUGU"}
    ]}
  ]
}
